Laboratory results: patent publication US6783966B1 (priority 2000, dated 2004)

Molecular target: T1, α1,4 Gal-T (Homo sapiens, UniProt Q9NPC4)
T1 sequence (Q9NPC4 1-353): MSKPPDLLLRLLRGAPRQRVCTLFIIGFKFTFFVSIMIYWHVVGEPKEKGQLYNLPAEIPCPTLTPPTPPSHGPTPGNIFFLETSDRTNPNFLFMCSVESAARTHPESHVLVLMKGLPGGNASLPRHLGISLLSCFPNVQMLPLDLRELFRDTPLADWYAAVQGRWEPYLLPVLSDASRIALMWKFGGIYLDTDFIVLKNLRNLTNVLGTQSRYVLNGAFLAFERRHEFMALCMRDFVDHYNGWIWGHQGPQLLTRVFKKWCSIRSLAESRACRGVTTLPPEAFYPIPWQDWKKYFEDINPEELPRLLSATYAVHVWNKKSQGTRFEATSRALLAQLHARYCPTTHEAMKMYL
Assay: Enzyme assay of α1,4 Gal-T in membrane fraction of transfected L cells
Conditions: potential acceptors, FIG. 4B
Procedure: Membrane fractions were prepared as described(ref.19) from L cells transfected with the gene for α1,4 Gal-T as obtained in Example 1. The enzyme activity of α1,4 Gal-T in the membrane fraction was measured as descibed previously(ref.4). The reaction mixture for the assay contained the following in a volume of 50 μl:50 mM sodium cacodylate-HCl (pH 6.0), 10 mM MgCl2, 5 mM galactonolactone (Sigma), 0.3% Triton X-100 (Sigma), 0.4 mM (LacCer), 2.9 mM phosphatidylglycerol (Sigma), 0.2 mM UDP-Gal (Sigma), UDP-[^14C] Gal (2.5×10^5 dpm) (NEN), and membrane fraction containing 50 μg protein. The protein concentration was determined by Lowry's methods(ref.20). The products was isolated by a C18 Sep-Pak cartridge (Waters, Milford, Mass.) and analyzed by thin layer chromatography (TLC) and autoradiography using a Bio-Imaging Analyzer BAS2000 (Fuji Film, Tokyo).
Enzyme activity toward other potential acceptors was also examined (FIG. 4B).

paragloboside [paragloboside(PG)]
significant levels of [14C] galactose incorporation (acceptor): not responsible for the synthesis of P1 antigen
